Data published in the RNAGym collection of RNA variant scans (doi:10.7554/elife.90254).
Read counts are not given, so values of variants with three or more changes are uncertain.

B1: LINE1-mini (parent)
chain: GGCAGAGCUCAACACAGCGUGGCAAAGUGGCUGUGGCUAGACUGCC

Variants of: B1
Experiment: self-cleavage, relative activity (ratio to wild type); higher = more cleavage; in vitro, sequencing; the parent is a self-cleaving ribozyme

Row | Variant | self-cleavage
1 | GGAGGAACUCAACCAAGCGUGGCAAAGUGGCUGUGGCUAGACUGCC [C3A A4G G7A A14C C15A] | 0.46
2 | GUCAGAGCUCAACACAGCGUGGCAAAGGGGCUGUUGCUAGACUGAC [G2U U28G G35U C45A] | 0.02
3 | GGAUGAGCUCAACACAGCGUGCCAAAGUGGCUGUGUCUAGACUGCC [C3A A4U G22C G36U] | 0.3
4 | GGAUGAGCACAACACAGCGUGGCAAAGUGGCUUUGGCUUGACUGCC [C3A A4U U9A G33U A39U] | 0.21
5 | GUCAGAGCGCCACACUGCGUGGCAAAGUGGCUGUGGCUAGAUUGCC [G2U U9G A11C A16U C42U] | 0
6 | GUCAGAGCUCAACACAGCGCGGAAAAGUGGCUGUGGAUAGACUCCC [G2U U20C C23A C37A G44C] | 0.01
7 | GUCAGAGCUCAACACAGCGUGGCAAAGUGGCUGUCGUUAGACUGCC [G2U G35C C37U] | 0.01
8 | GGAGGAGCUCAACACAGCGUGGUAAAGUGGCUGUGGCUAGACUGCC [C3A A4G C23U] | 0.57
9 | GGACGAGCUCAACACAGCGUGGCUAAGUGGCUGUGUCUAGACUGCC [C3A A4C A24U G36U] | 0.12
10 | GUCAGAGCUCAACACAGCGUGGCAAAGAGGCUGUGGCUGGACUGCC [G2U U28A A39G] | 0
11 | GUCAGAGCUCAACACAGCGCGGAGAAGUGGCUGUGGCUAGACUGCC [G2U U20C C23A A24G] | 0.03
12 | GUCAGAGCUCAACACAGCGUGGCAAAGUGGCUGUGGCUAUACCGCC [G2U G40U U43C] | 0.14
13 | GUCAGAGCUCAACACAGCGUGGCAAAGUGGCGGCGGCUAGACUGCG [G2U U32G U34C C46G] | 0
14 | GUCAGAGCUCAACACAGCGUGGCAAAGUGGCCGUGGCUCGACUGCC [G2U U32C A39C] | 0.04
15 | GUCAGAGCUCAACACAGCGUGGCAAAGUGGCGUUGGCUAGACUGCC [G2U U32G G33U] | 0.02
16 | GUCAGAGCCCAACACAGCGUGGCAAGGUGGCUGUGGUUAGACUGCC [G2U U9C A26G C37U] | 0.05
17 | GUCAGAGCUCAACACAGCGUGGCAAAGAGGCUGUUGCUAGACUGCC [G2U U28A G35U] | 0.04
18 | GGACGAGCUCAACACACCGUGGCAAAGUGCCUGUUGCAAGACAUCC [C3A A4C G17C G30C G35U U38A U43A G44U] | 0.07
19 | GUCAGAGCUCAACACAGCGUGGCAAAGUGGCCGUGGCUAGACUGUA [G2U U32C C45U C46A] | 0

Row | Variant | self-cleavage
20 | GGAUGAGCACACCACAGCGUGGCAAAGUGGCUGUGGCUAGUCUGCC [C3A A4U U9A A12C A41U] | 0.02
21 | GUCAGAGCUCAACACAGCGUGGCAAAGUGGCUGUGGCCCGACUGAC [G2U U38C A39C C45A] | 0.01
22 | GGAUGAACUCGACACAGCGUGGCAAAGUGGCUGUGGCUAGACUGCC [C3A A4U G7A A11G] | 0.08
23 | GUCAGAGCCCAACACAGCGUGGCAGAGUGGCUGUGGCUAGACUGCC [G2U U9C A25G] | 0
24 | GUCAGAGCUCAACACAGCGCGGGCAAGUGGCUGUGGCUAGACUGCC [G2U U20C C23G A24C] | 0.07
25 | GGAGGAGCUCAAAACAGCGUGGCAAAGUGGCUGUUGCUAGACUGCC [C3A A4G C13A G35U] | 0.36
26 | GUCAGAGCUCAACACAGCGCGGCAAAGUGGCUGUGGCAAGACUGCC [G2U U20C U38A] | 0.02
27 | GUCAGAGCUCAACACAGCGUGGCAAAGAGGCUGUGUCUAGAUUGCG [G2U U28A G36U C42U C46G] | 0.07
28 | GUCAGAGCUCAACACAGCGUGGCAAAGCGGCUGUGGCUUGACUGCC [G2U U28C A39U] | 0.13
29 | GGAUGAGGUCAACACAGCGUGGCAAAGGGGCUGUGGCUAGACUGCC [C3A A4U C8G U28G] | 0.26
30 | GUCAGAGCUCAACACAGCGCGGGAAAGUGGCUGUGGCUGGACCGCC [G2U U20C C23G A39G U43C] | 0.05
31 | GUCAGAGCCCAACACAGCGUGGAAAAGUGGCGGUGCCUAGACUGCC [G2U U9C C23A U32G G36C] | 0.02
32 | GGAGGAGCUAAUCACAGCGUGGCAAAGUGACAGUCGCUAGACUGCC [C3A A4G C10A A12U G30A U32A G35C] | 0.01
33 | GGACGAGGUCAACACAGCGUGGCAAAGUGGCUGUGGCUAUACGGCC [C3A A4C C8G G40U U43G] | 0.03
34 | GUCAGAGCUCAACACAGCGUGGCAAAGUGGCUUUGGGUAGACUUCC [G2U G33U C37G G44U] | 0.02
35 | GUCAGAGCUCAACACAGCGUGGCAAAGUGGCUGUGGCCAGACUGAC [G2U U38C C45A] | 0.23
36 | GGACGAGCUCAACACAGCGUAGCCAAGUGGCUGUGGCUAGACUGCC [C3A A4C G21A A24C] | 0.16
37 | GGAGGUGCUCAACAUAGCGUGGCAAACUGGUUGUGGCUCGACUUCU [C3A A4G A6U C15U G27C C31U A39C G44U C46U] | 0.07
38 | GGAUGAGCUCAACACAGUGUGGCAACGUGGCUGUGGCUAGACUGCC [C3A A4U C18U A26C] | 0.23

Row | Variant | self-cleavage
39 | GUCAGAGCUCAACACAGCGUGGCAAAGUGGCUGUGGCGAGACUGUC [G2U U38G C45U] | 0.01
40 | GUCAGAGCGAAACACAGCGUGGAAAAGUGUCUGUGGAUAGACUGCC [G2U U9G C10A C23A G30U C37A] | 0
41 | GUCAGAGCUCAACACAGCGUGGCAAAGUGGCUGUGGCUACACUCCC [G2U G40C G44C] | 0.03
42 | GUCAGAGCAAAACACAGCGUGGCAAAGUGGCUGUGGCUAGACUGCC [G2U U9A C10A] | 0
43 | GUCAGAGCCCAACACAGCGUGGCAAAGUGGCUCUGGCUAAACUGCC [G2U U9C G33C G40A] | 0.02
44 | GUCAGAGCUCAACACAGCGUGGCAAAGUGGCUCUGCCUAGACUGCC [G2U G33C G36C] | 0.04
45 | GGACGAGCUCACCACAGCGUGGCAAAGUGACUGUGGAUAGACUGCC [C3A A4C A12C G30A C37A] | 0.06
46 | GGACGAGCUCAACACAGCCUGGCAAGGUAGCUGUGCCUAGACUGCA [C3A A4C G19C A26G G29A G36C C46A] | 0.1
47 | GGAGGAGCUCAACACAACGUGGCAAAGUGGCUGGGGCUAGACUGCC [C3A A4G G17A U34G] | 0.02
48 | GGACGAGCUUGACACAGCGUGGAAUAGUGGCUGUGGCUAGACUGCC [C3A A4C C10U A11G C23A A25U] | 0.02
49 | GUCAGAGCACAACACAGCGUGGCAAUGUGGCUGCGGCUAGCCUGCC [G2U U9A A26U U34C A41C] | 0.05
50 | GGACGAGCUCAACACAGCGUGGCAAAGUGGCUGUGGGUAGACUGCC [C3A A4C C37G] | 0.08
51 | GGAUGAGCUCGACGAAGCGUGUCAAACUGGCUGUGGCUAGACUGCC [C3A A4U A11G A14G C15A G22U G27C] | 0.01
52 | GGACGGGCACAACACAGAGUGGCAAAGUGGCUGUGGCUAGCCUGCC [C3A A4C A6G U9A C18A A41C] | 0.05
53 | GUCAGAGCUCAACACAGCGUGGCAAAGUGGCUGUUUCUAGACUGCC [G2U G35U G36U] | 0.62
54 | GUCAGAGCGCGACACAGCGUGGCAAAGUGGCUGCGGCUAGACUGCC [G2U U9G A11G U34C] | 0.01
55 | GUCAGAGCCCAACACAGAGUCGCAAAGUGGCUGUCGCUAGACUGCC [G2U U9C C18A G21C G35C] | 0.01
56 | GUCAGAGCUCAACACAGCGUGGCAAAGUGGCUGCGGCUAGUCUGAC [G2U U34C A41U C45A] | 0.04
